Experimental data reported in the supplement of paper PMC12217912.
The other results are listed elsewhere or left out. Sequences were assembled here from the parent chain. Values near 0.05 are background.

B1: TEV protease; numbered along this chain (parent)
chain: MGESLFKGPRDYNPISSSICHLTNESDGHTTSLYGIGFGPFIITNKHLFRRNNGTLVVQSLHGVFKVKDTTTLQQHLVDGRDMIIIRMPKDFPPFPQKLKFREPQREERICLVTTNFQTKSMSSMVSDTSCTFPSGDGIFWKHWIQTKDGQCGSPLVSTRDGFIVGIHSASNFTNTNNYFTSVPKNFMELLTNQEAQQWVSGWRLNADSVLWGGHKVFMVKPEEPFQPVKEATQL

Variants of: B1
Experiment: raw area under fraction-flipped curve 0-4 h after induction (AUC4h, not background-subtracted), DNA-recorder readout of cleavage of the substrate (dimensionless); higher = more cleavage of the substrate by the protease variant
Conditions: temperature: 34 °C; time window: 0-4 h after rhamnose induction
Protocol: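 In vivo DNA recorder in E. coli TOP10(DE3) ΔrhaA at 34 °C. Each TEVp single-site mutant (parent TEVp 0) is paired with a single-site variant of the 7-mer TEVs (canonical ENLYFQ|S). The substrate sits between flexible linkers in a Bxb1-sfGFP-TEVs-SsrA fusion, so cleavage stabilises Bxb1 and speeds flipping of a recombination array, read by NGS. The value is the raw area under the fraction-flipped curve over 0-4 h after rhamnose induction (AUC4h), with ≥20 reads per time point. It is not background-subtracted; inactive controls average about 0.047.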
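Further: Bxb1 expression induced with 0.2% (w/v) L-rhamnose at OD600 near 0.5, cultures sampled hourly, flipped fraction per protease–substrate barcode pair counted by paired-end Illumina sequencing.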

Row | Variant | area with substrate ANLYFQS | area with substrate CNLYFQS | area with substrate DNLYFQS | area with substrate FNLYFQS | area with substrate GNLYFQS | area with substrate HNLYFQS | area with substrate KNLYFQS | area with substrate MNLYFQS | area with substrate NNLYFQS | area with substrate PNLYFQS | area with substrate QNLYFQS | area with substrate TNLYFQS | area with substrate VNLYFQS | area with substrate WNLYFQS | area with substrate YNLYFQS | area with substrate INLYFQS | area with substrate LNLYFQS | area with substrate SNLYFQS | area with substrate RNLYFQS
1 | MGESLFKGPRDYNPISSSICHLTNESDGLTTSLYGIGFGPFIITNKHLFRRNNGTLVVQSLHGVFKVKDTTTLQQHLVDGRDMIIIRMPKDFPPFPQKLKFREPQREERICLVTTNFQTKSMSSMVSDTSCTFPSGDGIFWKHWIQTKDGQCGSPLVSTRDGFIVGIHSASNFTNTNNYFTSVPKNFMELLTNQEAQQWVSGWRLNADSVLWGGHKVFMVKPEEPFQPVKEATQL [H29L] | 0.0713 | 0.057 | 0.0957 | 0.0655 | 0.0577 | 0.0593 | 0.0714 | 0.0662 | 0.08 | 0.0579 | 0.0716 | 0.0608 | 0.067 | 0.0579 | 0.0681 |  |  |  | 
2 | MGESLFKGPRDYNPISSSICHLTNESDGDTTSLYGIGFGPFIITNKHLFRRNNGTLVVQSLHGVFKVKDTTTLQQHLVDGRDMIIIRMPKDFPPFPQKLKFREPQREERICLVTTNFQTKSMSSMVSDTSCTFPSGDGIFWKHWIQTKDGQCGSPLVSTRDGFIVGIHSASNFTNTNNYFTSVPKNFMELLTNQEAQQWVSGWRLNADSVLWGGHKVFMVKPEEPFQPVKEATQL [H29D] | 0.0756 | 0.0834 | 0.0791 | 0.0643 |  |  |  | 0.0496 | 0.0476 | 0.0643 |  | 0.0757 |  | 0.0561 | 0.0687 | 0.0598 | 0.0578 |  | 
3 | MGESLFKGPRDYNPISSSICHLTNESDGATTSLYGIGFGPFIITNKHLFRRNNGTLVVQSLHGVFKVKDTTTLQQHLVDGRDMIIIRMPKDFPPFPQKLKFREPQREERICLVTTNFQTKSMSSMVSDTSCTFPSGDGIFWKHWIQTKDGQCGSPLVSTRDGFIVGIHSASNFTNTNNYFTSVPKNFMELLTNQEAQQWVSGWRLNADSVLWGGHKVFMVKPEEPFQPVKEATQL [H29A] | 0.0623 | 0.0726 | 0.0943 |  | 0.0816 | 0.0584 |  | 0.0494 | 0.0514 | 0.0854 |  | 0.0636 |  | 0.0625 | 0.0665 | 0.0632 | 0.0609 | 0.0635 | 
4 | MGESLFKGPRDYNPISSSICHLTNESDGHTTSPYGIGFGPFIITNKHLFRRNNGTLVVQSLHGVFKVKDTTTLQQHLVDGRDMIIIRMPKDFPPFPQKLKFREPQREERICLVTTNFQTKSMSSMVSDTSCTFPSGDGIFWKHWIQTKDGQCGSPLVSTRDGFIVGIHSASNFTNTNNYFTSVPKNFMELLTNQEAQQWVSGWRLNADSVLWGGHKVFMVKPEEPFQPVKEATQL [L33P] | 0.0471 | 0.0484 | 0.0697 | 0.0156 |  | 0.0464 | 0.0436 |  | 0.0378 | 0.05 |  | 0.0494 |  | 0.0581 |  | 0.0411 | 0.0487 | 0.0564 | 0.0751
5 | MGESLFKGPRDYNPISSSICHLTNESDCHTTSLYGIGFGPFIITNKHLFRRNNGTLVVQSLHGVFKVKDTTTLQQHLVDGRDMIIIRMPKDFPPFPQKLKFREPQREERICLVTTNFQTKSMSSMVSDTSCTFPSGDGIFWKHWIQTKDGQCGSPLVSTRDGFIVGIHSASNFTNTNNYFTSVPKNFMELLTNQEAQQWVSGWRLNADSVLWGGHKVFMVKPEEPFQPVKEATQL [G28C] | 0.0627 | 0.0601 | 0.0735 | 0.0601 |  | 0.0689 |  |  |  | 0.0545 |  | 0.0585 | 0.0653 | 0.0636 |  | 0.0401 |  |  | 
6 | MGESLFKGPRDYNPISSSICHLTNESQGHTTSLYGIGFGPFIITNKHLFRRNNGTLVVQSLHGVFKVKDTTTLQQHLVDGRDMIIIRMPKDFPPFPQKLKFREPQREERICLVTTNFQTKSMSSMVSDTSCTFPSGDGIFWKHWIQTKDGQCGSPLVSTRDGFIVGIHSASNFTNTNNYFTSVPKNFMELLTNQEAQQWVSGWRLNADSVLWGGHKVFMVKPEEPFQPVKEATQL [D27Q] | 0.0718 | 0.0751 | 0.0746 |  |  | 0.0822 |  | 0.0668 |  | 0.0751 |  | 0.077 | 0.0538 | 0.0615 |  | 0.0737 | 0.0509 | 0.0792 | 
7 | MGESLFKGPRDYNPISSSICHLTNESKGHTTSLYGIGFGPFIITNKHLFRRNNGTLVVQSLHGVFKVKDTTTLQQHLVDGRDMIIIRMPKDFPPFPQKLKFREPQREERICLVTTNFQTKSMSSMVSDTSCTFPSGDGIFWKHWIQTKDGQCGSPLVSTRDGFIVGIHSASNFTNTNNYFTSVPKNFMELLTNQEAQQWVSGWRLNADSVLWGGHKVFMVKPEEPFQPVKEATQL [D27K] | 0.0605 | 0.0562 | 0.0804 |  |  | 0.0577 |  |  |  |  |  | 0.063 | 0.0612 | 0.0662 | 0.051 |  | 0.0679 | 0.0599 | 
8 | MGESLFKGPRDYNPISSSICHLTNESAGHTTSLYGIGFGPFIITNKHLFRRNNGTLVVQSLHGVFKVKDTTTLQQHLVDGRDMIIIRMPKDFPPFPQKLKFREPQREERICLVTTNFQTKSMSSMVSDTSCTFPSGDGIFWKHWIQTKDGQCGSPLVSTRDGFIVGIHSASNFTNTNNYFTSVPKNFMELLTNQEAQQWVSGWRLNADSVLWGGHKVFMVKPEEPFQPVKEATQL [D27A] | 0.0548 | 0.0617 | 0.0764 | 0.0534 | 0.068 | 0.075 | 0.0664 |  | 0.0501 | 0.0594 | 0.0645 | 0.0595 |  | 0.0603 | 0.0591 | 0.0795 | 0.0623 | 0.0747 | 
9 | MGESLFKGPRDYNPISSSICHLTNESDGHTTHLYGIGFGPFIITNKHLFRRNNGTLVVQSLHGVFKVKDTTTLQQHLVDGRDMIIIRMPKDFPPFPQKLKFREPQREERICLVTTNFQTKSMSSMVSDTSCTFPSGDGIFWKHWIQTKDGQCGSPLVSTRDGFIVGIHSASNFTNTNNYFTSVPKNFMELLTNQEAQQWVSGWRLNADSVLWGGHKVFMVKPEEPFQPVKEATQL [S32H] | 0.0601 | 0.0911 | 0.0815 | 0.0594 | 0.057 | 0.0675 | 0.0592 | 0.074 | 0.0641 | 0.0629 | 0.065 | 0.0705 | 0.0691 | 0.0592 | 0.0621 | 0.0661 | 0.051 | 0.0736 | 
